Experimental data reported in the supplement of paper PMC4967469.
The IC50 comes from the fitted curve, where viability falls to half of the control; where the fit passes the top or lowest dose, that dose stands as a limit. AUC, from the same fit, is the share of area under the viability curve across the 256-fold dose range: 1 means no effect, lower means more sensitive. For part of these data: An inferred top dose comes from the curve model; the source does not state it.

Columns and labels:
Experiment in all cases: Viability of human cancer cell lines after 72 h of drug (GDSC screen)
QL-XI-92 = compound: C=CC(=O)Nc1cc(NC(=O)c2ccc(C)c(NC(=O)c3ccno3)c2)cc(C(F)(F)F)c1 [QL-XI-92]; details: top dose 10.24 µM; top dose inferred
Experimental: (§1)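 Human cancer cell lines in 384-well plates, medium with 10% serum, drug for 72 h over a 256-fold dose range (nine 2-fold or five 4-fold steps up to the top dose). Adherent lines were fixed and stained with the nucleic acid dye Syto60, suspension lines read with resazurin; signal relative to control wells, capped at 0 and 100%. One two-parameter sigmoid per drug and line, fitted in a mixed model over all curves with the slope shared within a line.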

Vinorelbine = compound: CCC1=C[C@@H]2CN(C1)Cc1c([nH]c3ccccc13)[C@@](C(=O)OC)(c1cc3c(cc1OC)N(C)[C@H]1[C@@](O)(C(=O)OC)[C@H](OC(C)=O)[C@]4(CC)C=CCN5CC[C@]31[C@@H]54)C2 [Vinorelbine]; details: top dose 0.064 µM; top dose inferred
Experimental: as §1

AG-014699 = compound: CNCc1ccc(-c2[nH]c3cc(F)cc4c3c2CCNC4=O)cc1 [AG-014699]; details: top dose 5 µM; top dose inferred
Experimental: as §1

XL-184 = compound: COc1cc2nccc(Oc3ccc(NC(=O)C4(C(=O)Nc5ccc(F)cc5)CC4)cc3)c2cc1OC [XL-184]; details: top dose 5.12 µM; top dose inferred
Experimental: as §1

WHI-P97 = compound: COc1cc2ncnc(Nc3cc(Br)c(O)c(Br)c3)c2cc1OC [WHI-P97]; details: top dose 10.24 µM; top dose inferred
Experimental: as §1

Gefitinib = compound: COc1cc2ncnc(Nc3ccc(F)c(Cl)c3)c2cc1OCCCN1CCOCC1 [Gefitinib]; details: top dose 0.5 µM
Experimental: as §1

Phenformin = compound: N=C(N)NC(=N)NCCc1ccccc1 [Phenformin]; details: top dose 4000 µM; top dose inferred
Experimental: as §1

EHT 1864 = compound: O=c1cc(CN2CCOCC2)occ1OCCCCCSc1ccnc2cc(C(F)(F)F)ccc12 [EHT 1864]; details: top dose 10 µM; top dose inferred
Experimental: as §1

NU-7441 = compound: O=c1cc(N2CCOCC2)oc2c(-c3cccc4c3sc3ccccc34)cccc12 [NU-7441]; details: top dose 2 µM; top dose inferred
Experimental: as §1

Cell Line	AUC (QL-XI-92)	IC50 (QL-XI-92) [µM]	AUC (Vinorelbine)	IC50 (Vinorelbine) [µM]	AUC (AG-014699)	IC50 (AG-014699) [µM]	AUC (XL-184)	IC50 (XL-184) [µM]	AUC (WHI-P97)	IC50 (WHI-P97) [µM]	AUC (Gefitinib)	IC50 (Gefitinib) [µM]	AUC (Phenformin)	IC50 (Phenformin) [µM]	AUC (EHT 1864)	IC50 (EHT 1864) [µM]	AUC (NU-7441)	IC50 (NU-7441) [µM]
RKN (ovary, adherent)	0.969	> 10.2	0.813	0.037	0.977	> 5	0.982	> 5.12	0.931	> 10.2	0.98	> 0.5	0.8	2070	0.982	> 10	0.962	> 2
RO82-W-1 (thyroid, adherent)	0.983	> 10.2	0.957	> 0.064	0.966	> 5	0.963	> 5.12	0.977	> 10.2	0.978	> 0.5	0.953	> 4000	0.93	> 10	0.938	> 2
RPMI-2650 (head and neck, adherent)	0.965	> 10.2	0.662	0.0117	0.941	> 5	0.893	> 5.12	0.964	> 10.2	0.985	> 0.5	0.809	2300	0.943	> 10	0.973	> 2
RPMI-7951 (melanoma, adherent)	0.898	> 10.2	0.646	0.01	0.977	> 5	0.903	> 5.12	0.983	> 10.2	0.985	> 0.5	0.373	113	0.979	> 10	0.942	> 2
RVH-421 (melanoma, adherent)	0.903	> 10.2	0.478	0.00341	0.947	> 5	0.932	> 5.12	0.962	> 10.2	0.972	> 0.5	0.736	1540	0.958	> 10	0.928	> 2
SAS (head and neck, adherent)	0.944	> 10.2	0.984	> 0.064	0.963	> 5	0.874	> 5.12	0.84	8.24	0.891	> 0.5	0.795	2090	0.896	> 10	0.979	> 2
SAT (head and neck, adherent)	0.975	> 10.2	0.925	> 0.064	0.964	> 5	0.909	> 5.12	0.963	> 10.2	0.695	0.15	0.925	> 4000	0.91	> 10	0.927	> 2
